Experimental data as given in PubChem BioAssay (NCATS).
Values joined by “and” are separate entries in the source; they are usually repeats but may differ in a detail not shown here. Equal values may be shown once. This list was built around the results that the source calls inconclusive (neither active nor inactive); the mix of calls is not that of the screen. No potency is given beside an inconclusive call; the fits are too rough. Active and inactive are the calls of the source. Calls follow the shape of the dose curve; as a rule, active = well fitted inhibition curve with a large enough effect; inconclusive = small, poorly fitted or top-dose-only effect; inactive = no such curve, though single readings can be large or run the other way.

target: Cytochrome P450 3A4 (Homo sapiens) (UniProt P08684); assay: qHTS Assay for Inhibitors and Substrates of Cytochrome P450 3A4 (AID 884); conditions: recombinant CYP3A4, Luciferin-PPXE luminescence; series mostly up to 57.1 µM; also: nearly all actives have a fitted effect of over 50% in size
How it was run: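 20 nM human CYP3A4 with 25 uM Luciferin-PPXE (at KM) in 200 mM KPO4, preincubated 10 min with compound; NADPH regeneration started a 60 min RT reaction. Luciferin detected by luminescence, normalized to 57 uM ketoconazole as full inhibition.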
Potency is read from the fitted curve at half-maximal effect; tags tell the direction and shape of the fitted curve.

UniProt P08684, sequence (P08684 whole entry, looked up): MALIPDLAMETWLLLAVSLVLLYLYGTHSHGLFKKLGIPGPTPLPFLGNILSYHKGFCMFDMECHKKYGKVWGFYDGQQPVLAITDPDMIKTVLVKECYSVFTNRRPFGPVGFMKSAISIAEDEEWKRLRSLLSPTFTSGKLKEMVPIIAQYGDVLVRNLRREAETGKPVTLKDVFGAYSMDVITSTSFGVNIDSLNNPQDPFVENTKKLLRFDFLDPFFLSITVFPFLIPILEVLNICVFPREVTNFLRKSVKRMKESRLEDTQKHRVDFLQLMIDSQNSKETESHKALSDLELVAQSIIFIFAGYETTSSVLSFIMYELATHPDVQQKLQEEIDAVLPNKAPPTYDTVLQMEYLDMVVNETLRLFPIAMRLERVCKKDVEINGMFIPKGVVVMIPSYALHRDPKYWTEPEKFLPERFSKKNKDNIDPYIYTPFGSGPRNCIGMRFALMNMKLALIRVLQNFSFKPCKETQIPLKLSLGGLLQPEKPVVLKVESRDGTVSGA

SMILES | Potency
CC(=O)OC[C@@H]1O[C@H](CCO/N=C(\C)CCN2CCc3nc(-c4ccccc4)c(-c4ccccc4)cc3C2)C=C[C@@H]1OC(C)=O | inconclusive [inhibitor, single point]
COC(=O)[C@@H]1CC[C@H](C)[C@@H](c2ccc(C)cc2)N1C(=O)c1ccc(/C=N\O[C@@H](C)CN2CCCCc3nc(C)c(C)cc32)cc1 | inconclusive [inhibitor, partial curve]
COC(=O)[C@@]1(Cc2ccc(OC)cc2)[C@H]2c3cc(C(=O)N4CCCC4)n(CCc4c[nH]c5ccc(O)cc45)c3C[C@H]2CN1C(=O)c1ccccc1 | active: 1.58 µM
COc1ccc(OC2C(O)COC2/C=C/C#Cc2ccc(F)cc2F)cc1 (configuration not stated) | active: 3.98 µM and active: 3.16 µM
CCC[C@@H]1C[C@@]1(CCC)C(NC(=O)c1cccs1)c1ccc(Cl)cc1 (some centres not stated) | active: 6.31 µM
C/C(CCN1CCCc2nc(C)c(C)cc21)=N\O[C@@H](C)c1cc(-c2c(C)cc(C)cc2C)no1 | inconclusive [inhibitor, partial curve]
Cc1ccc(-c2nnc(-c3ccc4ccccc4c3)o2)cc1 | inconclusive [inhibitor, single point]
COC(=O)C/C=C\[C@@H](C)[C@@H](/C=N\OCC[C@H]1C=C[C@H](OC(C)=O)[C@@H](COC(C)=O)O1)NS(=O)(=O)c1ccc(C)cc1 | active: 3.98 µM
Cc1cc2c(nc1C)CCCN2C[C@H](O)CN1CCCc2nc(-c3ccc(Br)cc3)ccc21 | inconclusive [inhibitor, partial curve]
CO[C@H]1COC(=O)C/C=C\[C@H](C)[C@@H](OC)COC(=O)[C@H](C)COC(=O)C/C=C\[C@@H]1C | inconclusive [inhibitor, partial curve]
COc1ccc(Oc2ncc3nc(-c4ccc(OC)cc4)c(=O)n(Cc4cccs4)c3n2)cc1 | inconclusive [inhibitor, full curve, poor fit]
CC/C=C\CC[C@H](OC(=O)c1ccc(Br)cc1)C1=CCCCC1=O | inconclusive [inhibitor, partial curve]
